# Screen size: about 340,000 compounds; about 530 (0.16%) were called active. Inconclusive means that the source gave no clear call. Such entries were picked first, then a sample of the others. Cut-off read from the data, not from the text of the source: active = activity change below about -80%; inconclusive = between about -30% and that limit; inactive = weaker than that.
# Assay: Small Molecules that selectively kill Giardia lamblia: qHTS;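 note: parasites exposed to compound for two days anaerobically before the ATP read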
# Details: Giardia lamblia trophozoite viability; at 7.66 µM; hits give low values
# In short: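 Each well holds 100 Giardia trophozoites and compound. After two days (48 hrs) at 37 deg C in anaerobic conditions, ATP is quantified by luminescence.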
# % is set by controls: 0 for no effect and ±100 for the full control effect.
row,Structure (SMILES),activity change
1,N#CC1=C(N)Oc2c(c(=O)sc3ccccc23)C1c1ccncc1 (stereo not drawn),inconclusive: -34.8% [inhibitor]
2,COC(=O)C1=C(c2ccc(F)cc2OCc2ccccc2)C[C@@H]2CC[C@H]1N2C(=O)NCc1ccc(F)cc1,inactive: -11.5%
3,Cc1ccc(-c2nc3c(=O)n(C)c(=O)nc-3n(C)n2)cc1,active: -94.9%
4,O=C(Nc1ccc(Cl)cc1C(=O)c1ccccc1)c1ccccc1,inconclusive: -40.2% [inhibitor]
5,CNC(=O)Oc1ccc(-c2cn3cc(C)ccc3n2)cc1,active: -108%
6,O=c1[nH]c(=O)n(CCC2=CCCCC2)c(O)c1C=NCc1cccnc1,inconclusive: -41.1% [inhibitor]
7,COc1ccc(C[C@H]2NC[C@H](O)[C@H]2OC(C)=O)cc1,inconclusive: -74.2% [inhibitor]
8,COc1ccc(/C=C/C(=O)c2c(O)n(CCC3=CCCCC3)c(=O)[nH]c2=O)cc1OC,inconclusive: -39.7% [inhibitor]
9,Cc1nc2c(=O)n(C)c(=O)nc-2n(C)n1,active: -107%
10,Oc1ccc2c3c1OC1c4[nH]c5ccccc5c4C[C@@]4(O)C(C2)N(CC2CC2)CC[C@]314 (stereo partly drawn),inactive: -0.622%
11,Cc1cc(Cc2c(O)[nH]c(=S)[nH]c2=O)ccc1OC(C)C,inconclusive: -41.9% [inhibitor]
12,O=C1C(=O)c2ccccc2-c2ccccc21,inconclusive: -30.7% [inhibitor]
13,CCc1cc2c(s1)N(CC(=O)OC)C(=O)CN=C2c1ccccc1OC,inconclusive: -33.8% [inhibitor]
14,O=c1ccc2cc(O[C@@H]3O[C@@H](CO)[C@H](O)[C@@H](O)[C@@H]3O)c(O)cc2o1,inactive: -0.778%
15,CN(C)C(=S)SSC(=S)N(C)C,active: -85.4%
16,COc1ccc2nc(NC(=O)CCc3nc(C4=CCN(C)CC4)no3)sc2c1,inconclusive: -33.1% [inhibitor]
17,CCC(=NCc1ccc2c(c1)OCO2)c1c(O)n(C)c(=O)n(C)c1=O,inactive: 8.39%
18,CN(C)C(=O)Oc1ccc(-c2cn3cc(Cl)ccc3n2)cc1,inconclusive: -38.1% [inhibitor]
19,Cc1nnc2ccc(-c3cccc(C(F)(F)F)c3)nn12,inconclusive: -50.5% [inhibitor]
20,c1ccc(P(c2ccccc2)c2ccccn2)cc1,inactive: 13.3%
21,CCn1c(O)c(C=Nc2ccc(S(N)(=O)=O)cc2)c(=O)n(CC)c1=S,inactive: 6.46%
22,O=[N+]([O-])c1c2ccccc2cc2ccccc12,inconclusive: -35.9% [inhibitor]
23,CC1CN(c2ccc([N+](=O)[O-])c(N3CCCCC3)c2)CCN1 (stereo not drawn),inconclusive: -31.7% [inhibitor]
